Assay results taken from the supplement of paper PMC8728848.
This is one part of the list.

Tests used:
Experiment in all cases: glycan array binding signal (z-score within array); higher = stronger binding
Settings in all cases: glycan notation: IUPAC condensed, linker removed
[1] = target: Neu5Ac(a2-3)[Neu5Ac(a2-6)]GalNAc
How it was run: (§1)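 Columns mapping to the same glycan were averaged after glycan names were converted to IUPAC-condensed notation. The data come from 3228 arrays in the Consortium for Functional Glycomics database, limited to those with an available protein sequence. Binding is reported as a within-array Z-score averaged across arrays of one protein sequence and across linkers.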

Neu5Ac(a2-6)Gal = target: Neu5Ac(a2-6)Gal
How it was run: as §1

Neu5Ac(a2-6)Gal(b1-4)Glc = target: Neu5Ac(a2-6)Gal(b1-4)Glc
How it was run: as §1

[2] = target: Neu5Ac(a2-6)Gal(b1-4)GlcNAc
How it was run: as §1

[3] = target: Neu5Ac(a2-6)Gal(b1-4)GlcNAc(b1-2)Man(a1-3)Man(b1-4)GlcNAc(b1-4)GlcNAc
How it was run: as §1

[4] = target: Neu5Ac(a2-6)Gal(b1-4)GlcNAc(b1-2)Man(a1-3)[Gal(b1-4)GlcNAc(b1-2)Man(a1-6)]Man(b1-4)GlcNAc(b1-4)GlcNAc
How it was run: as §1

[5] = target: Neu5Ac(a2-6)Gal(b1-4)GlcNAc(b1-2)Man(a1-3)[GlcNAc(b1-2)Man(a1-6)]Man(b1-4)GlcNAc(b1-4)GlcNAc
How it was run: as §1

[6] = target: Neu5Ac(a2-6)Gal(b1-4)GlcNAc(b1-2)Man(a1-3)[GlcNAc(b1-2)Man(b1-4)GlcNAc(b1-2)Man(a1-6)]Man(b1-4)GlcNAc(b1-4)GlcNAc
How it was run: as §1

[7] = target: Neu5Ac(a2-6)Gal(b1-4)GlcNAc(b1-2)Man(a1-3)[Man(a1-6)]Man(b1-4)GlcNAc(b1-4)GlcNAc
How it was run: as §1

[8] = target: Neu5Ac(a2-6)Gal(b1-4)GlcNAc(b1-2)Man(a1-3)[Neu5Ac(a2-6)Gal(b1-4)GlcNAc(b1-2)Man(a1-6)]Man(b1-4)GlcNAc(b1-4)GlcNAc
How it was run: as §1

[9] = target: Neu5Ac(a2-6)Gal(b1-4)GlcNAc(b1-2)Man(a1-6)Man(b1-4)GlcNAc(b1-4)GlcNAc
How it was run: as §1

[10] = target: Neu5Ac(a2-6)Gal(b1-4)GlcNAc(b1-2)Man(a1-6)[Gal(b1-4)GlcNAc(b1-2)Man(a1-3)]Man(b1-4)GlcNAc(b1-4)GlcNAc
How it was run: as §1

[11] = target: Neu5Ac(a2-6)Gal(b1-4)GlcNAc(b1-2)Man(a1-6)[GlcNAc(b1-2)Man(a1-3)]Man(b1-4)GlcNAc(b1-4)GlcNAc
How it was run: as §1

[12] = target: Neu5Ac(a2-6)Gal(b1-4)GlcNAc(b1-2)Man(a1-6)[Man(a1-3)]Man(b1-4)GlcNAc(b1-4)GlcNAc
How it was run: as §1

[13] = target: Neu5Ac(a2-6)Gal(b1-4)GlcNAc(b1-3)Gal(b1-3)GlcNAc
How it was run: as §1

[14] = target: Neu5Ac(a2-6)Gal(b1-4)GlcNAc(b1-3)Gal(b1-4)GlcNAc
How it was run: as §1

[15] = target: Neu5Ac(a2-6)Gal(b1-4)GlcNAc(b1-3)Gal(b1-4)GlcNAc(b1-3)Gal(b1-4)GlcNAc
How it was run: as §1

[16] = target: Neu5Ac(a2-6)Gal(b1-4)GlcNAc(b1-3)Gal(b1-4)[Fuc(a1-3)]GlcNAc(b1-3)Gal(b1-4)[Fuc(a1-3)]GlcNAc
How it was run: as §1

[17] = target: Neu5Ac(a2-6)Gal(b1-4)GlcNAc(b1-3)GalNAc
How it was run: as §1

[18] = target: Neu5Ac(a2-6)Gal(b1-4)GlcNAc6S
How it was run: as §1

Neu5Ac(a2-6)GalNAc = target: Neu5Ac(a2-6)GalNAc
How it was run: as §1

[19] = target: Neu5Ac(a2-6)GalNAc(b1-4)GlcNAc
How it was run: as §1

[20] = target: Neu5Ac(a2-6)GlcNAc(b1-4)GlcNAc
How it was run: as §1

[21] = target: Neu5Ac(a2-6)GlcNAc(b1-4)GlcNAc(b1-4)GlcNAc
How it was run: as §1

Neu5Ac(a2-8)Neu5Ac = target: Neu5Ac(a2-8)Neu5Ac
How it was run: as §1

[22] = target: Neu5Ac(a2-8)Neu5Ac(a2-3)Gal(b1-4)Glc
How it was run: as §1

[23] = target: Neu5Ac(a2-8)Neu5Ac(a2-3)[GalNAc(b1-4)]Gal(b1-4)Glc
How it was run: as §1

[24] = target: Neu5Ac(a2-8)Neu5Ac(a2-8)Neu5Ac
How it was run: as §1

[25] = target: Neu5Ac(a2-8)Neu5Ac(a2-8)Neu5Ac(a2-3)Gal(b1-4)Glc
How it was run: as §1

[26] = target: Neu5Ac(a2-8)Neu5Ac(a2-8)Neu5Ac(a2-3)[GalNAc(b1-4)]Gal(b1-4)Glc
How it was run: as §1

[27] = target: Neu5Ac(a2-8)Neu5Ac(a2-8)Neu5Ac(a2-8)Neu5Ac(a2-3)[GalNAc(b1-4)]Gal(b1-4)Glc
How it was run: as §1

[28] = target: Neu5Ac(b2-6)Gal(b1-4)GlcNAc
How it was run: as §1

Neu5Ac(b2-6)GalNAc = target: Neu5Ac(b2-6)GalNAc
How it was run: as §1

[29] = target: Neu5Ac9Ac(a2-3)Gal(b1-3)GlcNAc
How it was run: as §1

[30] = target: Neu5Ac9Ac(a2-3)Gal(b1-4)GlcNAc
How it was run: as §1

[31] = target: Neu5Ac9Ac(a2-6)Gal(b1-4)GlcNAc
How it was run: as §1

[32] = target: Neu5Gc(a2-3)Gal(b1-3)GlcNAc
How it was run: as §1

[33] = target: Neu5Gc(a2-3)Gal(b1-3)[Fuc(a1-4)]GlcNAc
How it was run: as §1

Neu5Gc(a2-3)Gal(b1-4)Glc = target: Neu5Gc(a2-3)Gal(b1-4)Glc
How it was run: as §1

[34] = target: Neu5Gc(a2-3)Gal(b1-4)GlcNAc
How it was run: as §1

[35] = target: Neu5Gc(a2-3)Gal(b1-4)[Fuc(a1-3)]GlcNAc
How it was run: as §1

[36] = target: Neu5Gc(a2-6)Gal(b1-4)GlcNAc
How it was run: as §1

Neu5Gc(a2-6)GalNAc = target: Neu5Gc(a2-6)GalNAc
How it was run: as §1

[37] = target: Neu5Gc(b2-6)Gal(b1-4)GlcNAc
How it was run: as §1

B1: Flo11 (Saccharomyces cerevisiae), Q1H8S8 (protein)
chain: MGSSHHHHHHSSGLVPRGSHMFPTALVPRGSSEGTSCNSIVNGCPNLDFNWHMDQQNIMQYTLDVTSVSWVQDNTYQITIHVKGKENIDLKYLWSLKIIGVTGPKGTVQLYGYNENTYLIDNPTDFTATFEVYATQDVNSCQVWMPNFQIQFEYLQGSAAQYASSWQWGTTSFDLSTGCNNYDNQGHSQTDFPGFYWNIDCDNNCGGTKSS
Q: Which results are given for B1?
A: glycan array binding signal (z-score) [1]: -0.496; glycan array binding signal (z-score) (Neu5Ac(a2-6)Gal): -0.501; glycan array binding signal (z-score) (Neu5Ac(a2-6)Gal(b1-4)Glc): -0.507; glycan array binding signal (z-score) [2]: -0.498; glycan array binding signal (z-score) [3]: -0.501; glycan array binding signal (z-score) [4]: -0.494; glycan array binding signal (z-score) [5]: -0.502; glycan array binding signal (z-score) [6]: -0.496; glycan array binding signal (z-score) [7]: -0.5; glycan array binding signal (z-score) [8]: -0.496; glycan array binding signal (z-score) [9]: -0.505; glycan array binding signal (z-score) [10]: -0.492; glycan array binding signal (z-score) [11]: -0.505; glycan array binding signal (z-score) [12]: -0.505; glycan array binding signal (z-score) [13]: 1.9; glycan array binding signal (z-score) [14]: 1.17; glycan array binding signal (z-score) [15]: 2.41; glycan array binding signal (z-score) [16]: -0.468; glycan array binding signal (z-score) [17]: 1.73; glycan array binding signal (z-score) [18]: -0.508; glycan array binding signal (z-score) (Neu5Ac(a2-6)GalNAc): -0.507; glycan array binding signal (z-score) [19]: -0.509; glycan array binding signal (z-score) [20]: -0.495; glycan array binding signal (z-score) [21]: -0.502; glycan array binding signal (z-score) (Neu5Ac(a2-8)Neu5Ac): -0.497; glycan array binding signal (z-score) [22]: -0.506; glycan array binding signal (z-score) [23]: 3.67; glycan array binding signal (z-score) [24]: -0.504; glycan array binding signal (z-score) [25]: -0.496; glycan array binding signal (z-score) [26]: 2.62; glycan array binding signal (z-score) [27]: 2.65; glycan array binding signal (z-score) [28]: -0.507; glycan array binding signal (z-score) (Neu5Ac(b2-6)GalNAc): -0.51; glycan array binding signal (z-score) [29]: -0.505; glycan array binding signal (z-score) [30]: -0.507; glycan array binding signal (z-score) [31]: -0.494; glycan array binding signal (z-score) [32]: -0.503; glycan array binding signal (z-score) [33]: -0.506; glycan array binding signal (z-score) (Neu5Gc(a2-3)Gal(b1-4)Glc): -0.5; glycan array binding signal (z-score) [34]: -0.505; glycan array binding signal (z-score) [35]: 3.45; glycan array binding signal (z-score) [36]: -0.503; glycan array binding signal (z-score) (Neu5Gc(a2-6)GalNAc): -0.508; glycan array binding signal (z-score) [37]: -0.503
